Experimental data: paper PMC11277258, “Melanocortin-4 Receptor PLC Activation Is Modulated by an Interaction with the Monocarboxylate Transporter 8” (International Journal of Molecular Sciences, 2024)

Molecular target: T1, monocarboxylate transporter 8, C-terminally tagged with HaloTag (MCT8-HT) (human, UniProt P36021 1-539, HaloTag ligand 618 bound to the HaloTag)
T1 construct: monocarboxylate transporter 8 (MCT8, gene SLC16A2), human; The functional rows used MCT8 in hcpcDps without a stated tag; also called MCT8-HaloTag; HaloTag (HT)-tagged MCT8; source: HEK293, transfected, in live cells; not shown: HaloTag, C-terminal, kept
Assay: FRET or BRET; NanoBRET in live HEK293 cells; donor (NL-tagged) and acceptor (MCT8-HT) DNA co-transfected 1:8 (100 ng:800 ng); HT-Ligand 618; emission at 460 nm and 618 nm; DMSO background subtracted; mBU
Settings: partners not purified

T1 sequence (P36021 whole entry): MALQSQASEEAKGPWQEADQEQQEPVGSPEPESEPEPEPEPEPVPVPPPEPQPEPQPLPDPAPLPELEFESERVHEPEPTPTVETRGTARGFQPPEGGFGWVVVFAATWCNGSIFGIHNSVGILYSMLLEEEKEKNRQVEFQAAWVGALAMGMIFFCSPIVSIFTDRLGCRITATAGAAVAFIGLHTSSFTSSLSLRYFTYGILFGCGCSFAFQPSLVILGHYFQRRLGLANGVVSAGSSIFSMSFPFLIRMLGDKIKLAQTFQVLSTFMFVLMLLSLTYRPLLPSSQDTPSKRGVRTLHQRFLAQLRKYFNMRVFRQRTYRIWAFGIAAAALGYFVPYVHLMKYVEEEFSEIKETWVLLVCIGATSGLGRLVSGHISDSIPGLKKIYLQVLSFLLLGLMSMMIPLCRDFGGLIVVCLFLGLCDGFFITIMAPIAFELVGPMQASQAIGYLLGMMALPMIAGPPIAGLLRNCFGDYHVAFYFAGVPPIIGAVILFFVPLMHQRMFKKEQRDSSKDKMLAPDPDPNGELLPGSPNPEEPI

B1: melanocortin-4 receptor, C-terminally tagged with NanoLuc (MC4R-NL) (receptor, human, UniProt P32245 1-332, looked up)
chain: MVNSTHRGMHTSLHLWNRSSYRLHSNASESLGKGYSDGGCYEQLFVSPEVFVTLGVISLLENILVIVAIAKNKNLHSPMYFFICSLAVADMLVSVSNGSETIVITLLNSTDTDAQSFTVNIDNVIDSVICSSLLASICSLLSIAVDRYFTIFYALQYHNIMTVKRVGIIISCIWAACTVSGILFIIYSDSSAVIICLITMFFTMLALMASLYVHMFLMARLHIKRIAVLPGTGAIRQGANMKGAITLTILIGVFVVCWAPFFLHLIFYISCPQNPYCVCFMSHFNLYLILIMCNSIIDPLIYALRSQELRKTFKEIICCYPLGGLCDLSSRY
notes: melanocortin-4 receptor (MC4R), human; Cloned into a Promega NanoLuc fusion vector (pFC32K or pFC14A); The functional rows used another construct: N-terminally HA-tagged MC4R in hcpcDps; also called NanoLuc (NL)-tagged MC4R; source: HEK293, transfected, in live cells; not shown: NanoLuc, C-terminal, kept
fold BRET ratio over the negative control pair Rab6b-NL and MCT8-HT: 6 fold
